# Data published in PubChem BioAssay AID463173 (ICCB-Longwood Screening Facility, Harvard Medical School, 2010).
# The campaign covered roughly 52,000 compounds. About 4,300 (8.3%) were called active. No stated cut-off is given here; in the data, active means survival mostly below about 52% (no sharp cut-off); inactive means mostly above about 56%. The list shows a part of the results.
# Tested on: DeltatarO mutant
# Experiment: growth inhibition of S. aureus wild type versus tarO mutant, primary screen, teichoic acid synthesis inhibitors, RN4220, OD600 (AID 463173)
# Conditions: OD600, 18 h, stronger effect = lower value, screened at 18.75 µg/mL (by protocol)
row,Compound,survival
1,COc1ccc(Nc2nc3c(S(=O)(=O)c4ccccc4)nnn3c3ccc(Cl)cc23)cc1OC,inactive: 117%
2,CCOC(=O)c1cccc(NC(=O)c2cc3c(=O)n(Cc4cccnc4)ccc3nc2C)c1,inactive: 118%
3,Cc1cccc(-c2nc(N3CCN(c4ccc(F)cc4)CC3)c3ccccc3n2)c1,inactive: 54%
4,CCCCOc1ccccc1NC(=O)Cn1c(-c2cncs2)nc2ccccc21,active: 49%
5,COc1ccc(OC)c(-n2cnc3cc(C(=O)NC4CCCC4)ccc32)c1,inactive: 96%
6,O=C(Nc1nnc(S(=O)(=O)N2CCCC2)s1)c1ccc(F)cc1,inactive: 111%
7,O=C(NC1CC(=O)N(c2ccccc2)C1)c1cc2ccccc2o1 (stereo unspecified),inactive: 89%
8,Cc1oc(-c2ccccc2)nc1CNS(=O)(=O)c1ccc(Cl)cc1,inactive: 85%
9,O=C(O)c1ccccc1C1=Nc2ccc(O)cc2Oc2cc(O)ccc21,inactive: 89%
10,Cc1ccc(-n2ncc3c(NCCCn4ccnc4)ncnc32)cc1,inactive: 79%
11,CC1CCCC(C)N1C(=O)CN1CCC(N2CCCCC2)CC1 (stereo unspecified),inactive: 94%
12,Cc1ccc(NC(=O)c2cc(-c3cccs3)on2)cc1C,active: 45%
13,CCN1CCN(CCCNC(=O)c2cnn(-c3ccc(C)cc3)c2C2CCN(C(=O)OC(C)(C)C)CC2)CC1,inactive: 86%
14,CCCCCn1c(=O)[nH]c2cc(C(=O)N3CCN(c4ccccc4F)CC3)ccc2c1=O,inactive: 87%
15,COc1cc(-c2nc3cccc(C)n3c2Nc2ccc3c(c2)OCCO3)ccc1O,inactive: 76%
16,COc1ccccc1CNC(=O)c1cccc(NC(=O)N2CCSc3ncccc32)c1,inactive: 78%
17,CCCCOC(=O)c1ccc(NC(=O)CSc2nc3c(c(=O)[nH]2)CCC3)cc1,inactive: 55%
18,CC(=O)c1ccc(N2CCN(c3ncnc4onc(-c5ccc(Cl)cc5)c34)CC2)cc1,inactive: 74%
19,NC(=O)CC1SC(N)=NC1=O (stereo unspecified),inactive: 80%
20,CCc1c(C)nc2[nH]nc(NC(=O)C(F)(F)F)n2c1=O,inactive: 101%
21,COc1cc(N(C(=O)c2cnccn2)C(C(=O)NCc2ccccc2)c2cccs2)ccc1-n1cnnn1 (stereo unspecified),inactive: 100%
22,Cc1c(C(=O)NCc2ccc(F)cc2)sc2nc(-c3ccccc3)cn12,inactive: 100%
23,Cc1nnc(N2C(=O)c3oc4ccccc4c(=O)c3C2c2ccc(F)cc2)s1 (stereo unspecified),inactive: 63%

row,Compound,survival
1,COC(=O)c1c(-c2ccc(Cl)cc2)noc1N1CCN(c2cccc(OC)c2)CC1,inactive: 83%
2,CCOc1ccccc1C(=O)NCC(c1ccc(N(C)C)cc1)N1CCc2ccccc21 (stereo unspecified),inactive: 102%
3,Oc1c(C(c2ccc(Cl)cc2)N2CCCC2)sc2nc(-c3ccco3)nn12 (stereo unspecified),inactive: 49%
4,CN(C(=O)c1cnn2c(C(F)F)cc(-c3ccccc3)nc12)C1CCCCC1,inactive: 84%
5,COc1ccc(S(=O)(=O)NCCS(=O)(=O)N2CCN(c3ccccc3F)CC2)cc1,inactive: 117%
6,COc1cccc(-n2c(SCC(=O)Nc3ccc(F)cc3F)nc3c([nH]c4ccccc43)c2=O)c1,inactive: 99%
7,Cc1sc2ncn(C(C)C(=O)OC3CCCCC3)c(=O)c2c1C (stereo unspecified),inactive: 91%
8,O=C(NCc1ccccc1)C1CCC(CNS(=O)(=O)c2ccc(Br)s2)CC1 (stereo unspecified),inactive: 77%
9,CC1CCc2nn(CC(=O)Nc3cccc(C(F)(F)F)c3)c(=O)cc2C1 (stereo unspecified),inactive: 98%
10,COc1cc(NC(=O)Cn2c(=O)n(C(C)C)c(=O)c3oc4ccccc4c32)cc(OC)c1,active: 47%
11,Cn1c(C(=O)NCc2ccc3c(c2)OCO3)cc2sccc21,inactive: 88%
12,O=C(Nc1cccnc1Cl)c1cc(-c2ccc(Cl)cc2)on1,inactive: 57%
13,CCc1ccccc1N1CC(c2nc3ccccc3n2Cc2cccc(C)c2)CC1=O (stereo unspecified),inactive: 66%
14,O=C(Nc1sc2c(c1C(=O)NCc1ccccc1)CCCC2)c1cc(=O)c2cc(Cl)ccc2o1,inactive: 49%
15,N#Cc1ccccc1Cn1nnc2c(=O)[nH]c(C3CCCN(S(=O)(=O)c4ccc(F)cc4)C3)nc21 (stereo unspecified),inactive: 101%
16,O=C(Nc1nc2nc(-c3ccccc3)cc(=O)n2[nH]1)c1ccc(F)cc1,inactive: 68%
17,COc1ccc(CNc2ccc(C)c(C)c2)c(OC)c1OC,inactive: 93%
18,Cc1ccc(N2C(=O)CC(N3CCc4ccccc43)C2=O)cc1Cl (stereo unspecified),inactive: 84%
19,CCOc1ccccc1N1CC(c2nc3ccccc3n2CCCOc2ccccc2OC)CC1=O (stereo unspecified),inactive: 76%
20,CC(C)n1c(=S)[nH]c2c1c(=O)[nH]c(=O)n2C,inactive: 64%
21,CC1(C)OC(=O)C(=Cc2ccc(-c3ccc(S(N)(=O)=O)cc3)o2)C(=O)O1,inactive: 82%
22,CC(=O)c1ccc(NC(=O)CCc2c(C)nn(-c3ccc4nncn4n3)c2C)cc1,inactive: 91%
23,CCOc1ccc(CCNS(=O)(=O)c2c(C)nc3sc(C)cn3c2=O)cc1OCC,inactive: 58%

row,Compound,survival
1,CSc1ccc(CCNC(=O)c2cc3n(n2)CCCN(Cc2ccc(C)cc2)C3=O)cc1,inactive: 80%
2,CC(C)(C)C(=O)NC1CCN(CC(=O)N2CCCCCC2)CC1,inactive: 101%
3,CCC1CN(C(=O)N2CCC(C(=O)NCCOC)CC2)c2ccccc2O1 (stereo unspecified),inactive: 86%
4,Cc1ccc(NC(=O)CCS(=O)(=O)c2ccc3nc(C)sc3c2)cc1,active: 34%
5,CCc1ccc(NC(=O)Cn2nnc(C(=O)NCc3ccco3)c2N)cc1,inactive: 95%
6,Cc1ccccc1C(=O)Nc1nnc(SCc2cc(=O)c3c(C)ccc(C)c3[nH]2)s1,inactive: 102%
7,CC1CCN(S(=O)(=O)c2cc(C(=O)NCc3ccc(F)cc3)n(C)c2)CC1,inactive: 80%
8,O=C1C(c2ccc(F)cc2)N(CCc2ccccc2)C(=O)CN1C1CCCCC1 (stereo unspecified),inactive: 82%
9,CNC(=O)c1cc2n(n1)CCCN(Cc1ccc(F)cc1)C2=O,inactive: 73%
10,CC(C)c1ccc(C(=O)Nc2cccc3cccnc23)cc1,active: -1%
11,COc1ccc(CN(C(=O)Nc2ccc(C)c(F)c2)C2CCN(C(C)=O)CC2)cc1,inactive: 89%
12,CCSc1nnc(-c2ccc(S(=O)(=O)N3CCOCC3)cc2)n1C,inactive: 83%
13,COc1ccc(Cl)cc1Nc1ncnc2c1nc1n2CCCC1,inactive: 88%
14,O=C(CCS(=O)(=O)c1cc2c3c(c1)CCN3C(=O)CC2)NCc1ccc(F)cc1,inactive: 91%
15,CC(C)c1ccc(NC(=O)C2CCCN(S(=O)(=O)c3cccc4nonc34)C2)cc1 (stereo unspecified),inactive: 82%
16,O=C(Nc1noc2ccccc12)c1cccc(F)c1,inactive: 95%
17,CCc1ccc(NC(=O)C2CCCN(S(=O)(=O)c3c(C)[nH]c(=O)[nH]c3=O)C2)cc1 (stereo unspecified),inactive: 83%
18,CC(C)c1ccc(NS(=O)(=O)c2ccc3[nH]c(=O)ccc3c2)cc1,inactive: 83%
19,CCOC(=O)Cc1nnc2c(Nc3ccccc3OC)nc3nonc3n12,inactive: 99%
20,Cc1cc(C)c(NC(=O)Cn2c(=O)n(CCC(=O)NCc3ccc4c(c3)OCO4)c(=O)c3ccccc32)c(C)c1,inactive: 94%
21,CCOc1ccc(S(=O)(=O)Nc2ccc3c(c2)c(C(C)=O)c(C)n3S(=O)(=O)c2ccc(OCC)cc2)cc1,inactive: 67%
22,CCOC(=O)C1CCN(C(=O)CSc2c3c(nc4ccc(Cl)cc24)CCCC3)CC1,active: 39%
23,CC(=O)Nc1ccc(C(=O)CSc2nnc3cc(C)c4ccccc4n23)cc1,inactive: 82%

row,Compound,survival
1,Cc1ccc(NC(=O)c2sc3nc(-c4ccc(F)cc4)cn3c2C)c(C)c1,inactive: 81%
2,COc1ccc(CCC(=O)NC2CC(=O)N(c3ccc(C)c(C)c3)C2)cc1 (stereo unspecified),inactive: 93%
3,Cc1ccc(CNC(=O)c2ccc(-c3nc(CN4CCc5ccccc54)c(C)o3)cc2)cc1,inactive: 84%
4,COc1ccc(-c2cc(C(=O)NCC(=O)O)c(C)o2)cc1OC,inactive: 86%
5,O=C(NCc1ccc(Cl)cc1)C(=O)NCC(c1ccco1)S(=O)(=O)c1cccs1 (stereo unspecified),inactive: 95%
6,O=c1c2ccccc2n2c(-c3ccc(F)c(F)c3)nnc2n1CCc1ccccc1,inactive: 91%
7,Cc1cc(C)c(NC(=O)CSc2nnc3[nH]c(=O)cc(C)n23)c(C)c1,inactive: 93%
8,CCNc1nc(NC(C)C)nc(NC(N)NOC)n1 (stereo unspecified),inactive: 101%
9,CCC(=O)Nc1ccc2nc(SCC(=O)N3CCc4ccccc43)sc2c1,inactive: 73%
10,CCOC(=O)c1ccccc1NC1(c2ccc(OC)cc2)C(=O)c2ccccc2C1=O,inactive: 74%
11,CCOC(=O)c1c(S(=O)(=O)N2CCCC(C(=O)Nc3ccc(C)cc3C)C2)c(C)n(CC)c1C (stereo unspecified),inactive: 94%
12,COC(=O)c1ccc(C2c3c(oc4cc(C)c(C)cc4c3=O)C(=O)N2c2ccccn2)cc1 (stereo unspecified),inactive: 81%
13,C/C(=N\OCCN1CCCCC1)C1COc2ccccc2O1 (stereo unspecified),inactive: 97%
14,COc1ccc(C2NC(=O)NC(C)=C2C(=O)Nc2cc(C)cc(C)c2)c(OC)c1 (stereo unspecified),inactive: 46%
15,Cc1ccccc1CNC(=O)CCCn1nc(C)c2sc3ccccc3c2c1=O,inactive: 83%
16,CCc1c(C)nc2nncn2c1Nc1ccc(C)c(F)c1,inactive: 73%
17,CC(=O)Nc1ccc(Nc2cc(C)nc3ccccc23)cc1,inactive: 120%
18,CCCS(=O)(=O)NCCc1csc2nc(-c3ccc(OC)cc3)nn12,inactive: 67%
19,CN(Cc1ccccc1)c1ncnc2c1nc1n2CCCC1,inactive: 65%
20,O=C(Cn1nnc2sc3c(c2c1=O)CCCC3)Nc1ccc(F)c(Cl)c1,active: 36%
21,COc1cccc(NC(CNS(=O)(=O)c2ccc(C)cc2)c2ccccc2)c1 (stereo unspecified),inactive: 70%
22,CCN1C(=O)c2ccccc2Sc2ccc(NC(=O)c3ccc(C)c(F)c3)cc21,inactive: 77%
